Reference: the GPR68 mutational scans of Howard et al. (2025)

B1: GPR68, Q15743 (parent)
chain: MGNITADNSSMSCTIDHTIHQTLAPVVYVTVLVVGFPANCLSLYFGYLQIKARNELGVYLCNLTVADLFYICSLPFWLQYVLQHDNWSHGDLSCQVCGILLYENIYISVGFLCCISVDRYLAVAHPFRFHQFRTLKAAVGVSVVIWAKELLTSIYFLMHEEVIEDENQHRVCFEHYPIQAWQRAINYYRFLVGFLFPICLLLASYQGILRAVRRSHGTQKSRKDQIQRLVLSTVVIFLACFLPYHVLLLVRSVWEASCDFAKGVFNAYHFSLLLTSFNCVADPVLYCFVSETTHRDLARLRGACLAFLTCSRTGRAREAYPLGAPEASGKSGAQGEEPELLTKLHPAFQTPNSPGSGGFPTGRLA

Experiments:
[1] = variants of: B1; assay: cAMP reporter score (Enrich2 score, wild type = 0); higher = more signal; HEK293T, FACS bins
[2] = variants of: B1; assay: surface expression score (Enrich2 score, wild type = 0); higher = more signal; HEK293T, FACS bins

| Variant | cAMP reporter score ([1]; pH 5.5) | cAMP reporter score ([1]; pH 6) | cAMP reporter score ([1]; pH 6, modulator: ogerin) | cAMP reporter score ([1]; pH 6.5, modulator: ogerin) | surface expression score [2] |
| --- | --- | --- | --- | --- | --- |
| E103_I105del | -1.21 | -1.12 | -1.3 | -1.09 | -2.31 |
| E103_N104del | -1.1 | -1.74 | -1.97 | -0.327 | -2.62 |
| MGNITADNSSMSCTIDHTIHQTLAPVVYVTVLVVGFPANCLSLYFGYLQIKARNELGVYLCNLTVADLFYICSLPFWLQYVLQHDNWSHGDLSCQVCGILLYEAIYISVGFLCCISVDRYLAVAHPFRFHQFRTLKAAVGVSVVIWAKELLTSIYFLMHEEVIEDENQHRVCFEHYPIQAWQRAINYYRFLVGFLFPICLLLASYQGILRAVRRSHGTQKSRKDQIQRLVLSTVVIFLACFLPYHVLLLVRSVWEASCDFAKGVFNAYHFSLLLTSFNCVADPVLYCFVSETTHRDLARLRGACLAFLTCSRTGRAREAYPLGAPEASGKSGAQGEEPELLTKLHPAFQTPNSPGSGGFPTGRLA [N104A] | -1.6 | -1.15 | -1.42 | -1.49 | -1.87 |
| MGNITADNSSMSCTIDHTIHQTLAPVVYVTVLVVGFPANCLSLYFGYLQIKARNELGVYLCNLTVADLFYICSLPFWLQYVLQHDNWSHGDLSCQVCGILLYECIYISVGFLCCISVDRYLAVAHPFRFHQFRTLKAAVGVSVVIWAKELLTSIYFLMHEEVIEDENQHRVCFEHYPIQAWQRAINYYRFLVGFLFPICLLLASYQGILRAVRRSHGTQKSRKDQIQRLVLSTVVIFLACFLPYHVLLLVRSVWEASCDFAKGVFNAYHFSLLLTSFNCVADPVLYCFVSETTHRDLARLRGACLAFLTCSRTGRAREAYPLGAPEASGKSGAQGEEPELLTKLHPAFQTPNSPGSGGFPTGRLA [N104C] | -0.37 | – | – | – | -0.409 |
| MGNITADNSSMSCTIDHTIHQTLAPVVYVTVLVVGFPANCLSLYFGYLQIKARNELGVYLCNLTVADLFYICSLPFWLQYVLQHDNWSHGDLSCQVCGILLYEDIYISVGFLCCISVDRYLAVAHPFRFHQFRTLKAAVGVSVVIWAKELLTSIYFLMHEEVIEDENQHRVCFEHYPIQAWQRAINYYRFLVGFLFPICLLLASYQGILRAVRRSHGTQKSRKDQIQRLVLSTVVIFLACFLPYHVLLLVRSVWEASCDFAKGVFNAYHFSLLLTSFNCVADPVLYCFVSETTHRDLARLRGACLAFLTCSRTGRAREAYPLGAPEASGKSGAQGEEPELLTKLHPAFQTPNSPGSGGFPTGRLA [N104D] | -0.355 | 0.23 | -0.236 | -0.611 | -0.745 |

Scores with a large standard error are left out. Not listed are two conditions whose scores span a narrow range. In variant names, del marks residues removed and ins residues inserted between the two positions. For some of these results: How much ogerin was present is not stated here.
